# According to patent US20220220212A1 (RESEARCH FOUNDATION FOR THE STATE UNIVERSITY OF NEW YORK, published 2022):
# T1: biotinylated N-terminal domain CCR2 peptide (murine, biotinylated (position not given))
# T1 construct: Bought from ABclonal; also called CCR2 N-terminal domain; CCR2 N-terminus
# T1 peptide: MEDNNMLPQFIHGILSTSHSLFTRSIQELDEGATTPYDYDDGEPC
# Columns and labels:
# [1] = molecular target: T1, biotinylated N-terminal domain CCR2 …; test: ELISA; biotinylated NTD peptide on NeutrAvidin plate, serially diluted scFv, anti-flag HRP detection, 1:1 Hill fit
# Experimental: (§1) Nunc MaxiSorp 96-well plates were coated with NeutrAvidin at 5 μg/mL and incubated overnight at 4° C. The plate was thoroughly washed with 0.1% PBS-Tween (PBST), and 5 μg/mL biotinylated N-terminal domain CCR2 peptide ([…] (SEQ ID NO:58); ABclonal, Woburn, Mass.) added and incubated for 1 h at room temperature. The wells were washed with 0.1% PBST and then blocked with casein blocking buffer for 1 h at room temperature. The wells were washed with 0.1% PBST followed by incubation of serially diluted scFv for 1 h at room temperature before being washed five times with 0.1% PBST. Washes were followed by the addition of 100 uL of the respective horse-radish peroxidase (HRP)-linked monoclonal antibody (mAb) for 1 h at room temperature with rocking. An anti-M13 mAb was used to detect phages (#27-9421-01, GE healthcare, Chicago, Ill.) and an anti-flag mAb was used to detect scFv (#A8592, Sigma Aldrich, St. Louis, Mo.). The wells were washed with 0.1% PBST followed by the addition of TMB-ELISA substrate. After 10 min incubation, 2 M H₂SO₄ was added to stop the reaction. The absorbance was measured at 450 nm with a FilterMax F3 & F5 multi-mode microplate reader (Molecular Devices, Sunnyvale, Calif.). A 1:1 binding ratio Hill model was used to fit the binding interaction data.
# [2] = molecular target: T2, mouse CCR2 on cells (RAW 264.7 murine macrophages, 4T1 breast cancer cells) (murine, UniProt P51683 1-373); test: cell-based or functional assay
# [3] = molecular target: T2, mouse CCR2 on cells (RAW 264.7 murine …); test: flow cytometry on RAW 264.7 cells, DyLight 650 labelled scFv
# Experimental: (§2) FIG. 13. […] The liposomes were incubated with DyLight 650 NHS Ester labeled 58C-scFv at 4° C. overnight. Cells were detached with 5 mM EDTA and re-suspended in PBS to a concentration of 50,000 cells per 300 μL. The cells were incubated with various dilutions of DyLight 650 NHS Ester labeled 58C-scFv (free, low degree of valency, or high degree of valency) for 1 h at 4° C. Cells were washed three times with 5% BSA and analyzed in the APC channel of a MACSQuant Analyzer 10 flow cytometer (Miltenyi Biotec, Bergisch Gladbach, Germany).
# Cells were detached with 5 mM EDTA and re-suspended in PBS to a concentration of 50,000 cells per 300 μL. Cells were plated in a 48-well plate and incubated for 30 min at 4° C. After removing the PBS solution, the cells were incubated with various dilutions of DyLight 650 NHS Ester labeled 58C-scFv for 1 h at 4° C. Cells were washed three times with 5% BSA, detached with EDTA, and analyzed in the APC channel of a MACSQuant Analyzer 10 flow cytometer (Miltenyi Biotec, Bergisch Gladbach, Germany).
# [4] = molecular target: T1, biotinylated N-terminal domain CCR2 …; test: phage ELISA on the N-terminal peptide
# Experimental: as §1
# [5] = molecular target: T2, mouse CCR2 on cells (RAW 264.7 murine …); test: flow cytometry on RAW 264.7 cells, DyLight 650 labelled scFv on liposomes
# Experimental: as §2
# [6] = molecular target: T2, mouse CCR2 on cells (RAW 264.7 murine …); test: flow cytometry on RAW 264.7 cells; reference: low valency 58C-scFv on liposomes
# Experimental: as §2
# [7] = molecular target: T2, mouse CCR2 on cells (RAW 264.7 murine …); test: flow cytometry on RAW 264.7 cells; reference: free 58C-scFv monomer
# Experimental: as §2
binder,measurement,setting,value
"58C-scFv (scFv, For flow cytometry the protein was labelled with DyLight 650 NHS Ester; also called NTD-scFv; scFv 58C) scFv: DYKDDDDKL[about 100 residues skipped]GKSSGSGSESKASEVQLLESGAEVKKPGASVKVSCKTSGYTFTTYDIYWMRLATGQRLEWMGWVNPDNGKTDYAQKFQGRVTISRDSSINTVFMELSNLRLEDTAIYFCARALTRWQQSPLGYWGQGTLVTVSSVEASAAALDYKDDDDKLDHHHHHH",Kd,[1],59.8 nM
same,"M1/M2 ratio over negative control (IL-6/Arg-1), RAW 264.7, RT-PCR",[2],340000 fold
same,"M1/M2 ratio over negative control (IL-6/Mgl2), RAW 264.7, RT-PCR",[2],1.7e+06 fold
same,"M1/M2 ratio over negative control (iNOS/Arg-1), RAW 264.7, RT-PCR",[2],10000 fold
same,"M1/M2 ratio over negative control (iNOS/Mgl2), RAW 264.7, RT-PCR",[2],51000 fold
same,Kd,[3],1270 nM
"phage clone 37B (scFv, also called 37B-scFv) scFv: LEVQLVESGAEVKKPGASVKVSCKASGYTFTSYYMHWVRQAPGQGLEWMGIINPSGGSTSYAQKFQGRVTMTRDTSTSTVYMELSSLRSEDTAVYYCARDGNWFDPWGQGTLVTVSSGEGKSSGSGSESKAS[about 100 residues skipped]TFGGGTKLDIK",binding result,[4],binds
"phage clone 58C (scFv, also called 58C (phage)) scFv: [about 100 residues skipped]GKSSGSGSESKASEVQLLESGAEVKKPGASVKVSCKTSGYTFTTYDIYWMRLATGQRLEWMGWVNPDNGKTDYAQKFQGRVTISRDSSINTVFMELSNLRLEDTAIYFCARALTRWQQSPLGYWGQGTLVTVSS",binding result,[4],binds
"low valency 58C-scFv attached to liposomes (other, C-terminal hexa-histidine tag bound to DGS-NTA(Ni) lipid of the liposome; DyLight 650 NHS Ester label, also called low degree of valency; low ligand density) scFv: DYKDDDDKL[about 100 residues skipped]GKSSGSGSESKASEVQLLESGAEVKKPGASVKVSCKTSGYTFTTYDIYWMRLATGQRLEWMGWVNPDNGKTDYAQKFQGRVTISRDSSINTVFMELSNLRLEDTAIYFCARALTRWQQSPLGYWGQGTLVTVSSVEASAAALDYKDDDDKLDHHHHHH",Kd,[5],278 nM
"high valency 58C-scFv attached to liposomes (other, C-terminal hexa-histidine tag bound to DGS-NTA(Ni) lipid of the liposome; DyLight 650 NHS Ester label, also called high degree of valency; high ligand density) scFv: DYKDDDDKL[about 100 residues skipped]GKSSGSGSESKASEVQLLESGAEVKKPGASVKVSCKTSGYTFTTYDIYWMRLATGQRLEWMGWVNPDNGKTDYAQKFQGRVTISRDSSINTVFMELSNLRLEDTAIYFCARALTRWQQSPLGYWGQGTLVTVSSVEASAAALDYKDDDDKLDHHHHHH",fold increase in binding affinity against the low valency formulation,[6],~1.75 fold
same,fold increase in binding affinity against free 58C-scFv,[7],8 fold
same,Kd,[5],159 nM
